According to PubChem BioAssay AID1634 (National Center for Advancing Translational Sciences (NCATS), 2009):
Screen size: about 260,000 compounds; about 150 (0.058%) were called active. The inconclusive results got no clear call from the source; some entries with a clear call stand among them for comparison. The call rests on the fitted dose curve; in most records, active means well fitted inhibition curve with a large enough effect; inconclusive means small, poorly fitted or top-dose-only effect; inactive means no such curve, though single readings can be large or run the other way. A potency beside an inconclusive call is a rough fit, not a confirmed value.

molecular target: Pyruvate kinase PKM (Homo sapiens) (UniProt P14618); experiment: qHTS Assay for Inhibitors of Human Muscle isoform 2 Pyruvate Kinase; details: purified PKM2, ATP generation, Kinase-Glo luminescence; series mostly up to 57.5 µM; further: nearly all actives have a fitted effect of over 60% in size
Summary of the method: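 Coupled luciferase luminescence (Kinase-Glo) detects ATP generated from 0.1 mM ADP and 0.5 mM PEP in imidazole buffer pH 7.2 with KCl, MgCl2; 1 h at room temperature. Enzyme at intermediate activity; normalized to uninhibited and no-enzyme controls.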
Potency means the concentration at half of the fitted maximal effect; tags describe the fitted curve by direction and shape.

UniProt P14618, sequence (P14618 whole entry, looked up, canonical isoform): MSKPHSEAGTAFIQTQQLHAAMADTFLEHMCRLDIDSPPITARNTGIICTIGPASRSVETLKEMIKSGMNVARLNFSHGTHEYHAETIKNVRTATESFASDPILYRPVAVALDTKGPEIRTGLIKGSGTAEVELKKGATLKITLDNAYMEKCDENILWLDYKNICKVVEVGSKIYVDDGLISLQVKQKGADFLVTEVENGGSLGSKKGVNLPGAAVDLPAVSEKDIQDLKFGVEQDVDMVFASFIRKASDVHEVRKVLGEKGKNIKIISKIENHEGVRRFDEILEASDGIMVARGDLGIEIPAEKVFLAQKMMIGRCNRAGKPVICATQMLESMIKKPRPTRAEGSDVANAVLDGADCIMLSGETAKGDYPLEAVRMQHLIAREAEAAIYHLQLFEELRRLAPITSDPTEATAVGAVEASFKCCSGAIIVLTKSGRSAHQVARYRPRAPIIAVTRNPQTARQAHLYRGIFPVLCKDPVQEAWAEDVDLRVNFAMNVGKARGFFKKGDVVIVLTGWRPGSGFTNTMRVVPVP

Potency, active:
COc1ccc(NC(=O)c2ccccn2)cc1 14.1 µM, COc1ccc(NC(=O)c2cc([N+](=O)[O-])ccc2O)cc1 15.8 µM, COc1ccc2nc(NC(=O)c3ccoc3C)sc2c1 15.8 µM, COc1ccc(-c2cc3nc(C)cc(N)n3n2)cc1 14.1 µM, COc1ccc2nc(/N=C/c3c(C)[nH]n(-c4ccc(C)cc4)c3=O)sc2c1 14.1 µM

Potency, inconclusive:
CCOC(=O)c1ccc(COC(=O)CNS(=O)(=O)c2ccccc2)cc1 0.158 µM [falling, full curve, poor fit], O=C(NC1CCCC1)c1cccc(Oc2ccccc2)c1 5.62 µM [falling, full curve], CCOc1ccc2nc(N3C(=O)CNC3=S)sc2c1 14.1 µM [falling, partial curve], CCOc1ccc(-n2c(O)c(/C=N/Nc3nnc(C)c(=O)[nH]3)c3ccccc3c2=O)cc1 4.47 µM [falling, single point], Cc1ccc2c(c1)N=C(c1ccccc1)CC(C(Cl)Cl)=N2 39.8 µM [falling, single point], O=C1C=C(NCC2CCCO2)C2(CCCCC2)O1 (centres undefined) 0.251 µM [falling, full curve, poor fit], Nc1ccc2oc(-c3ccccn3)nc2c1 20 µM [falling, partial curve, poor fit], COc1cccc(N2CCN(C(=S)Nc3cc(C)cc(C)c3)CC2)c1 0.708 µM [falling, single point], COc1ccc(NC(=O)Cn2c(=O)sc3ccccc32)c(OC)c1 0.891 µM [falling, single point], O=S(=O)(Cc1ccc(Cl)cc1)N1CCN(Cc2ccc3c(c2)OCO3)CC1 39.8 µM [falling, single point], CCN1C(=O)/C(=C2/C=CC=CN2C)SC1=S 0.708 µM [falling, single point], CCOc1ccc(Nc2nc(N)c3ccccc3n2)cc1 15.8 µM [falling, partial curve, poor fit], O=C(Nc1ccc(N2CCCC2=O)cc1)c1cccc(F)c1 22.4 µM [falling, partial curve], Cc1cc(NC(=O)c2ccc3c(c2)OCO3)ccc1NC(=O)c1ccco1 17.8 µM [falling, partial curve], CCN1C(=O)/C(=C\C=C2/C=CC=CN2CC)SC1=S 25.1 µM [falling, single point], Cc1ccc(-c2nc3ccccc3[nH]2)cc1N 14.1 µM [falling, partial curve], O=C(O)c1cc(/C=C/c2ccc(N3CCOCC3)cc2)nc2ccccc12 12.6 µM [falling, partial curve], CCc1ccc(C(=O)Nc2nnn(CC)n2)cc1 25.1 µM [falling, single point], Cc1cccc(C(=O)O/N=C(\N)c2ccccn2)c1 20 µM [falling, partial curve], CCOC(=O)CC(=O)CSc1nc2ccc(C)cc2cc1C#N 17.8 µM [falling, single point], O=C(Nc1nc2ccccc2[nH]1)c1ccc(F)cc1 11.2 µM [falling, partial curve], Fc1ccccc1-c1nc(-c2ccncc2)no1 12.6 µM [falling, partial curve], O=C(OCc1nnc(-c2ccccc2)o1)c1cc(Cl)ccc1[N+](=O)[O-] 22.4 µM [falling, single point], Cc1ccc(-n2[nH]c(C)c(C=Nc3cc(C)ccn3)c2=O)cc1 20 µM [falling, partial curve], CC(=O)Nc1ccc(NC(=O)CSc2nnc(NC(=O)c3ccc(Br)o3)s2)cc1 20 µM [falling, single point], Cc1cccc2nc(=S)n(C(=O)c3ccco3)n12 5.01 µM [falling, partial curve, poor fit], CCOc1ccc(N/C=C/C(=O)c2ccccc2)c([N+](=O)[O-])c1 7.94 µM [falling, full curve, poor fit], O=S(=O)(c1ccc(N2CCOCC2)nc1)N(Cc1ccccn1)Cc1ccccn1 39.8 µM [falling, single point], S=C1NC2CCCCC2N1 (centres undefined) 39.8 µM [falling, single point], COc1cc(N=c2ssnc2Cl)cc(OC)c1OC 25.1 µM [falling, single point], Cc1ccc(C)c2nc3sc(C(=O)O)cc3cc12 8.91 µM [falling, single point], Oc1ccccc1CNCc1ccccc1 7.08 µM [falling, single point], C/C(=N\NC(=O)c1ccccc1NC(=O)c1ccc(Cl)cc1)c1ccncc1 11.2 µM [falling, partial curve], O=C(Nc1ccc2c(c1)OCO2)c1ccc2c(c1)OCO2 25.1 µM [falling, single point], Cc1ccc2nc(N3C(=O)CNC3=S)sc2c1 39.8 µM [falling, single point], Cc1ccccc1OCC1CNC(=O)O1 (centres undefined) 31.6 µM [falling, single point], COc1cccc2cc(-c3ccccc3)c(=O)oc12 39.8 µM [falling, single point], COc1ccc(NC(=O)c2cc3ccccn3n2)cc1 22.4 µM [falling, single point], CC1(C)Cc2cccc(C(=O)Nc3ccc(Cl)cc3)c2O1 39.8 µM [falling, single point], O=C(NNc1nc2c(F)cc(F)cc2s1)C1=COCCO1 35.5 µM [falling, single point], CCN(CC)c1ccc(/C=C2\C(=O)c3ccc(C(=O)O)cc3C2=O)cc1 39.8 µM [falling, single point], N/C(=N\OC(=O)c1cccc(F)c1)c1ccccc1 14.1 µM [falling, partial curve], CCN(CC)c1ccc(/C=C2/C(=O)c3ccc(C(=O)O)cc3C2=O)cc1 39.8 µM [falling, single point], CCOC(=O)C1CCN(C(=O)c2cc3ccccc3oc2=O)CC1 3.55 µM [falling, single point], COc1cc(C(=O)N=c2sc3ccccc3n2C)cc(OC)c1OC 25.1 µM [falling, single point], CCOC(=O)C(=O)Nc1nccs1 39.8 µM [falling, single point], COc1cccc(NC(=O)Nc2cc(Cl)ccc2C)c1 4.47 µM [falling, single point]

Potency, inactive:
COc1nc(C)nc2c1sc(=S)n2C, COc1ccccc1-n1cnc2cc(NS(=O)(=O)c3ccccc3)ccc21, Cc1cncn1CCc1nc2c3ccccc3nc(SCC(=O)Nc3cccc(Cl)c3)n2n1, Cc1ccc(C(=O)COc2nc(C)nc3ccccc23)cc1, COc1ccc(N2CCN(C(=O)c3ccc(NS(=O)(=O)c4cccc(F)c4)cc3)CC2)cc1, CCOC(=O)C(Cc1ccccc1)C(=O)Nc1nccs1 (centres undefined), Cc1cc(Br)ccc1OCCn1ccnc1, COc1ccc(S(=O)(=O)Nc2ccc(F)cc2)c(C)c1C, Nc1nonc1-c1nc2ccccc2n1CC(=O)N/N=C/c1ccc(-c2cccc(C(=O)O)c2)o1, Cc1nn(C)cc1CN(C)C(=O)c1cc2nc(-c3ccco3)cc(C(F)(F)F)n2n1, O=S(=O)(c1cccs1)N1CN(C2CCCCC2)c2nc3ccccc3nc21, O=C(Nc1ccccc1)C1=C(O)CC(c2ccc(Cl)cc2)N2CCN=C12 (centres undefined), Cc1ccccc1-c1ncc(CN2CCC(CO)(CCCc3ccccc3)CC2)cn1, COc1ccc(S(=O)(=O)c2nnn(-c3cccc(Cl)c3)c2N)cc1, O=C1C(Cl)=C(Nc2ccccc2O)C(=O)N1CCc1ccccc1, CC(C)CC(=O)Nc1nnc(S(=O)(=O)N2c3ccccc3CC2C)s1 (centres undefined), COc1ccc(CN2C(=O)/C(=C/c3ccncc3)SC2=S)cc1, O=C(Nc1ccc(F)cc1)N1CCCN(c2nccc(C(F)(F)F)n2)CC1, COc1ccccc1C(=O)Nc1ncc2c(n1)CC(c1ccco1)CC2=O (centres undefined), CCN1CCN(CC(=O)Nc2cc3c(cc2C(C)=O)OCO3)CC1, CC(=O)Nc1nnc(-c2ccccn2)o1, Cn1c(CSc2nnc(SCc3ccccc3)s2)nc2ccccc21, CC(C)(C)C(=O)Nc1ccc(Oc2ccc3c(c2)C(=O)N(c2ccc(O)cc2)C3=O)cc1, COc1ccccc1N/C=C/C(=C(C#N)C#N)N(C)C, CC(=O)Nc1sc(N/N=C\c2ccccc2F)nc1-c1cccs1, COc1cc2c(cc1OC)/C(=C/C(=O)N1CCOCC1)NC(C)(C)C2, Cc1ccc(Nc2cc(C)c3c(O)cccc3n2)cc1C
